Our source for the binding signal values is PMC12136788.

This is one part of the list.

To fix the notation:
B1: chr6:114281168:114281169:-_ENSG00000196591_ENST00000368632|hu_hu|hu_hu_hu_mus_True|8_18 (ssRNA)
RNA: GGGAGUUCUACAGUCCGACGAUCUUCCAUUUUUCGGUAUAAACCAUAAUUUAGCAGCAAGUUAUGAGUCAUCCGGAUUCUAUGAGGCUUCAUGGGAUGACCCUGGCCAUAAUAAUAAUUUCCAAUAUCACAGAUUCAGUAGUACAACAGAGGAUUGAGCAUCA
B2: chr11:72025555:72025556:-_ENSMUSG00000020801_ENSMUST00000021157|mus_hu|FALSE|FALSE (ssRNA)
RNA: GGGAGUUCUACAGUCCGACGAUCUCGCACACUGAGCAUUCACCAGCUCCUUUCGGAAGUGUUCAUAUUGGAGCAGCUCUAACAUGUGUAAACACUGAGGGUACUUUAGAUACUUGGCAUAUUCUGGGUCUUUCCAGUAAAGCACAACAGAGGAUUGAGCAUCA
B3: chr15:59387643:59387644:+_ENSG00000157450_ENST00000557998|hu_hu|motif|central (ssRNA)
RNA: GGGAGUUCUACAGUCCGACGAUCAAGGAUGGUAUUUAACUCAGAACUCCAUAUAGUAAAUAUACAGCAGCCAUUUUGUCCGGAUUAAGGAAUGUCUUAAUACACAAUAUUAUCAUUUUCUAGAGGAUCUUUAUACAUUAAACUCAACAGAGGAUUGAGCAUCA
B4: chr9:14812383:14812384:-_ENSMUSG00000031934_ENSMUST00000164273|mus_mus|mus_mus_mus_hu_True|38_88 (ssRNA)
RNA: GGGAGUUCUACAGUCCGACGAUCAUAGCCCAGGUAGAUACACGCUAACAGUAUAACGAUGAGUGUCAGCAGGCGGCAGCUAAUGUACUUGAUGAUUAAAUGACUAGAAUUUUUCUUUGUCUUCAAGUACUGCUCCACAAUUGGCAACAGAGGAUUGAGCAUCA
B5: chrX:98417731:98417732:-_ENSMUSG00000046032_ENSMUST00000120389|mus_mus|motif|central (ssRNA)
RNA: GGGAGUUCUACAGUCCGACGAUCGUUACUGGGCGGCCCGUAAGCGUCGGUCAGGUCUUGGGGCUUCGAGUUAAGGCGCCGGGUGUCAGCCACUGCGGUGUCCGACAUCUUUCCGAAGAAGAGCCCGGUACCGGCGAAGGGGGUCAACAGAGGAUUGAGCAUCA
B6: chr14:78183846:78183847:+_ENSG00000119705_ENST00000557342|hu_hu|hu_hu_hu_mus_False|28_38 (ssRNA)
RNA: GGGAGUUCUACAGUCCGACGAUCUCUCAGAAAUCUUUCUUCAUCAGAUGUUUGAGCUCCGUGCAAAGCCUUUGCUCUUUGAGCUUGAACGUGGAUCUUUACUCCAUCUAUAAUAUGCAGAAAAGGUAAUUUUUUUUUUAAAGACAACAGAGGAUUGAGCAUCA
B7: chr5:145557987:145557988:+_ENSMUSG00000045482_ENSMUST00000132925|mus_mus|FALSE|FALSE (ssRNA)
RNA: GGGAGUUCUACAGUCCGACGAUCCGGUCUCAAUGGCCUUUUCCAUCGGAAGCUGGAGAGAAGCUUUGCAAUCAGAGAACUCCACGGUAAUGCUGGGGCCUUGAACUUCAGUCACAACAUAGUGCAGCUUCUGGGACUCCUUCACAACAGAGGAUUGAGCAUCA
B8: chr1:29344887:29344888:+_ENSG00000159023_ENST00000356093|perfect_dup|motif|central (ssRNA)
RNA: GGGAGUUCUACAGUCCGACGAUCUUCCAUGACCUUCUCUUCAAGUUCCUUGGUCUGAUUCGGGGCCAGUUUAAAAUCACGGACAUAAUCCACGCCAUGGAGUUCUGGGUCGUAGUCUCCCAGUUCAGACUGGAUGGUGUAAGACAACAGAGGAUUGAGCAUCA
B9: chr10:21962475:21962476:+_ENSG00000078403_ENST00000307729|hu_hu|motif|central (ssRNA)
RNA: GGGAGUUCUACAGUCCGACGAUCUUCAAAGCUUUUAGGCUGUGAAGUAACAGCUGAGGUUGAAGGGAGGCCAAUUAAGGUACGGAAACUAUUUACCCCCCCUUCCUGGCUUCCAGACUCUCCUUUAUGUACAUCUUUGGUUGCCAACAGAGGAUUGAGCAUCA
B10: chr8:42711381:42711382:-_ENSG00000120925_ENST00000527424|hu_hu|FALSE|FALSE (ssRNA)
RNA: GGGAGUUCUACAGUCCGACGAUCCACUUCUCGAUACAUAAUAGAGAUGUAGAUAAGCAAUAAAAAGAUGACAAAGAAAUCAUCUAGAAAGCCUAGAAUUCCAAACAAGGCUUCAGGUACAAAAUCUAGAGGUGAUAUAAGAUACAACAGAGGAUUGAGCAUCA
B11: chr8:11667275:11667276:+_ENSG00000079459_ENST00000525900|hu_mus|FALSE|FALSE (ssRNA)
RNA: GGGAGUUCUACAGUCCGACGAUCGUCCUUCUCCUUGCUCUCAGUGAACCGCCACUCUGGGUCAUAGAGGAAAGUGUGGAAGUUACACAGCAGUGGGAUCUUCUUCUCCACACUGAUGCUCAUGUCAUCCUCCACUGUAUCCAGCAACAGAGGAUUGAGCAUCA
B12: chr4:4237396:4237397:-_ENSG00000132406_ENST00000382753|hu_hu|motif|central (ssRNA)
RNA: GGGAGUUCUACAGUCCGACGAUCUAAAACUUCACAUUAGGAAAUGCUAAAAACCCAGUAAUGUACAUAAUGAUAAAAUCGGAAGUGAUGAGAAAACAUAAAAUAUUUUCAUUUGGUCCUGUCACCUAACAAAACUAUCAUAAACAACAGAGGAUUGAGCAUCA
B13: chr18:9315019:9315020:-_ENSMUSG00000024286_ENSMUST00000053917|mus_hu|FALSE|FALSE (ssRNA)
RNA: GGGAGUUCUACAGUCCGACGAUCUAAGAUGCCAAAGUUUUCCAAGCUCACAUGGGAAGAAGGUGAAACACAGACCUGCUGCUGCCACUGGCCUCCCAGAGACUUGAAAAGGGAAACAACUCAGAAACCUGUCACUGUGACCUACAACAGAGGAUUGAGCAUCA
B14: chr10:24632488:24632489:+_ENSMUSG00000019984_ENSMUST00000092646|mus_mus|motif|central (ssRNA)
RNA: GGGAGUUCUACAGUCCGACGAUCAGGUGCUGGAGACCCGCUGUUGAGGGCCUGGGGUGGCACUGCCGGCUCCAUCUUGCGGAUGUGCGUGAUGAAUCGAAGACGAAGCUUUAAAGCCGGCUUUAAAUUACAGAUAAUCUUCUCCAACAGAGGAUUGAGCAUCA
B15: chr12:42180722:42180723:-_ENSMUSG00000036295_ENSMUST00000043884|mus_hu|mus_mus_mus_hu_True|58_58 (ssRNA)
RNA: GGGAGUUCUACAGUCCGACGAUCCUGUAGGAGAAGAAUCUGUGUGUUAGCUGGCAAUCUGGCUGGGAAAGUUAAAAGCCCUAAAUCAUUACAAUCCACUGUAGAUGCUUCCAUAUAAAUGGAUCUGGGUGUAAACCAAGGCCUCAACAGAGGAUUGAGCAUCA
B16: chr17:46962767:46962768:-_ENSMUSG00000036568_ENSMUST00000040624|mus_mus|FALSE|FALSE (ssRNA)
RNA: GGGAGUUCUACAGUCCGACGAUCAACAGGCACGUGAGUCACCCCGAUAGGCUGCAGUGUCUGACCUGAGUAAUUAGAAACAUUAGAAGCCUGAGUAAAGGAUGCUGAUGAAGAAGGAUGAAGCUGGGCUUGUGCAAACUGUUGCAACAGAGGAUUGAGCAUCA
B17: chr11:106642694:106642695:-_ENSMUSG00000020719_ENSMUST00000021062|mus_mus|motif|central (ssRNA)
RNA: GGGAGUUCUACAGUCCGACGAUCAAUCUGGAAUUAUAAAAUCCAUUGUCUCUAACUUCUUCCCAUACAAACAGAUCAUCCGGAGGGCCUUCUGAGUUCCUCUCCUAAAUCCAGGAAUGGGAAGUAGUCAACUUUCCUUGUGUACAACAGAGGAUUGAGCAUCA
B18: chr2:90738878:90738879:-_ENSMUSG00000005510_ENSMUST00000005647|mus_hu|FALSE|FALSE (ssRNA)
RNA: GGGAGUUCUACAGUCCGACGAUCUCCAAACAUGUCCCAGAUCUCCCUUUCAUACCAGUUGGCUGCCUUGAACACAGAGACAGCAGACUCAAUGGGCGUCAGCUCAUCUGUGUAGGUCUUCACACGGAUCCGUGAGUUGAAGCGCAACAGAGGAUUGAGCAUCA
B19: chr2:112102183:112102184:+_ENSMUSG00000027133_ENSMUST00000028553|mus_mus|motif|central (ssRNA)
RNA: GGGAGUUCUACAGUCCGACGAUCUGCUCGUUGAGGUAAUAUUGGAGAAACAUAACUGCCCUCAGCAAAAAGACACACGUACGGCCGCCAGCCGCGUUUACUCCGAGUGCGCCGCUUCAAUCGCGUGCGCCAACAACCUUCCAGCAACAGAGGAUUGAGCAUCA
B20: chr1:39494564:39494565:+_ENSG00000168653_ENST00000372967|hu_hu|hu_hu_hu_mus_True|38_48 (ssRNA)
RNA: GGGAGUUCUACAGUCCGACGAUCAUGCAUUCGCCUCAUCGUUUUGUACCGAAGCAAGCACUCUUCGAAGUCAUCGAACUCUAUCUUGCACUCUUUCUCUGCCCGAGUCCCACCGAUCCCGUGUGCACACUCUAUCCACUCUUUCAACAGAGGAUUGAGCAUCA
B21: chr7:97322993:97322994:+_ENSMUSG00000039361_ENSMUST00000049537|mus_mus|motif|central (ssRNA)
RNA: GGGAGUUCUACAGUCCGACGAUCUGUUGUAGCCCUGCUUGCAGCUGUGGAAUCUUUGAUUUUCUUUCCUUCCAAGGAAGCGGAAUGUUGUUCUAAAGCAUCAAGAAGACUGCUGGGGGCCUGUGAAAGAUCUGGAAUAUCUCCCAACAGAGGAUUGAGCAUCA
B22: chr17:64801638:64801639:+_ENSG00000154229_ENST00000413366|hu_mus|hu_hu_hu_mus_False|88_88 (ssRNA)
RNA: GGGAGUUCUACAGUCCGACGAUCUAUAUAUAUAUAUACAUAUGUACACAUAUGUAGUAAAACCCUAGUUAAACGUGUAAAGUAGCCAUUCAUUUUUAAAAUUACAUCUACAUUAAAAAAUUAAUAUAUCUGAUAGAGUGCCAGCAACAGAGGAUUGAGCAUCA

The target of the assay is T1, UNK ZnF1-3 (human, UniProt Q9C0B0 31-174).
T1 sequence: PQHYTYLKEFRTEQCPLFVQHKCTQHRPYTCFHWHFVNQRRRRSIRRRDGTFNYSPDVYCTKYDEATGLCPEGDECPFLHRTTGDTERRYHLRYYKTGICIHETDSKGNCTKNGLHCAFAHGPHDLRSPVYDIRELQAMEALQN
The experiment in a line: nsRBNS (natural sequence RNA bind-n-seq); RBNS binding buffer (assumed for nsRBNS): 25 mM Tris pH 7.5, 150 mM KCl, 3 mM MgCl2, 0.01% Triton X-100, 500 ug/ml BSA, 20 U/ml SUPERase-In, 4 C; UNK is unkempt and MSI1 is Musashi-1; names of the RNAs are library labels; protein concentration not given here; high values mean tight binding.
B1 came in with a binding signal of 1.28 enrichment R.
B2 yielded a binding signal of 0.816 enrichment R.
On to B3, for which the binding signal is 0.865 enrichment R.
On to B4, for which the binding signal is 1.01 enrichment R.
The same measure for B5: 1.1 enrichment R; for B6: 0.812 enrichment R.
With B7, the binding signal turned out to be 1.19 enrichment R.
The same measure for B8: 0.636 enrichment R.
The molecule B9 returned a binding signal of 0.578 enrichment R.
The same measure for B10: 1.56 enrichment R; for B11: 0.832 enrichment R.
On to B12, for which the binding signal was 1.05 enrichment R.
The same measure for B13: 0.856 enrichment R.
The same measure for B14: 0.91 enrichment R; for B15: 1.17 enrichment R.
The same measure for B16: 1.41 enrichment R; for B17: 0.446 enrichment R.
As for B18, the binding signal turned out to be 0.632 enrichment R.
The same measure for B19: 0.953 enrichment R; for B20: 0.683 enrichment R.
The same measure for B21: 1.12 enrichment R; for B22: 1.94 enrichment R.
